Data as given in the supplement of paper PMC4967469.

What was measured:
Test in all cases: Viability of human cancer cell lines after 72 h of drug (GDSC screen)
[1] = compound: CCCS(=O)(=O)Nc1ccc(F)c(C(=O)c2c[nH]c3ncc(Cl)cc23)c1F [PLX4720]; settings: top dose 10 µM
Protocol: (§1)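 Human cancer cell lines in 384-well plates, medium with 10% serum, drug for 72 h over a 256-fold dose range (nine 2-fold or five 4-fold steps up to the top dose). Adherent lines were fixed and stained with the nucleic acid dye Syto60, suspension lines read with resazurin; signal relative to control wells, capped at 0 and 100%. One two-parameter sigmoid per drug and line, fitted in a mixed model over all curves with the slope shared within a line.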

[2] = compound: CC(C)CC(=O)Nc1n[nH]c2c1CN(C(=O)C1CCN(C)CC1)C2(C)C [PHA-793887]; settings: top dose 10.24 µM
Protocol: as §1

[3] = compound: NC(=O)Nc1sc(-c2ccc(F)cc2)cc1C(N)=O [TPCA-1]; settings: top dose 20 µM
Protocol: as §1

[4] = compound: C[C@@H](N)c1ccc(C(=O)Nc2ccnc3[nH]ccc23)cc1 [Y-39983]; settings: top dose 20 µM; top dose inferred
Protocol: as §1

[5] = compound: C/C(=C\c1csc(C)n1)[C@@H]1C[C@@H]2O[C@]2(C)CCC[C@H](C)[C@H](O)[C@@H](C)C(=O)C(C)(C)[C@@H](O)CC(=O)O1 [Epothilone B]; settings: top dose 0.032 µM; top dose inferred
Protocol: as §1

[6] = screen: GDSC drug entry 1371, top dose inferred

Row | Cell Line | AUC ([1]; screen: GDSC drug entry 1036) | IC50 ([1]; screen: GDSC drug entry 1036) | AUC [1, 6] | IC50 [1, 6] | AUC [2] | IC50 [2] | AUC [3] | IC50 [3] | AUC [4] | IC50 [4] | AUC [5] | IC50 [5]
1 | OSC-20 (head and neck, adherent) | 0.886 | > 10 µM | 0.909 | > 10 µM | 0.857 | > 10.2 µM | 0.856 | > 20 µM | 0.961 | > 20 µM | 0.41 | 0.00108 µM
2 | OV-90 (ovary, adherent) | 0.964 | > 10 µM | 0.948 | > 10 µM | 0.864 | > 10.2 µM | 0.928 | > 20 µM | 0.96 | > 20 µM | 0.803 | 0.0213 µM
3 | OVCAR-3 (ovary, adherent) | 0.963 | > 10 µM | 0.97 | > 10 µM | 0.987 | > 10.2 µM | 0.983 | > 20 µM | 0.984 | > 20 µM | 0.622 | 0.00448 µM
4 | OVCAR-5 (ovary, adherent) | 0.982 | > 10 µM | 0.976 | > 10 µM | 0.764 | 4.45 µM | 0.908 | > 20 µM | 0.885 | > 20 µM | 0.542 | 0.00266 µM
5 | OVCAR-8 (ovary, adherent) | 0.968 | > 10 µM | 0.989 | > 10 µM | 0.854 | 6.8 µM | 0.837 | 11.5 µM | 0.883 | 17.6 µM | 0.418 | 0.00122 µM
6 | OVISE (ovary, adherent) | 0.872 | > 10 µM | 0.978 | > 10 µM | 0.683 | 2.47 µM | 0.839 | > 20 µM | 0.968 | > 20 µM | 0.832 | 0.0305 µM
7 | OVKATE (ovary, adherent) | 0.979 | > 10 µM | 0.977 | > 10 µM | 0.893 | > 10.2 µM | 0.631 | 3.68 µM | 0.967 | > 20 µM | 0.979 | > 0.032 µM
8 | OVMIU (ovary, adherent) | 0.878 | > 10 µM | 0.978 | > 10 µM | 0.81 | 7.09 µM | 0.764 | 9.02 µM | 0.958 | > 20 µM | 0.588 | 0.0037 µM
9 | OVTOKO (ovary, adherent) | 0.85 | > 10 µM | 0.952 | > 10 µM | 0.92 | > 10.2 µM | 0.834 | 18.4 µM | 0.934 | > 20 µM | 0.609 | 0.00434 µM
10 | P12-ICHIKAWA (T-cell lymphoblastic leukaemia, suspension) | 0.98 | > 10 µM | 0.994 | > 10 µM | 0.669 | 1.67 µM | 0.806 | 7.55 µM | 0.957 | > 20 µM | 0.72 | 0.00706 µM
11 | PA-1 (ovary, adherent) | 0.881 | 6.66 µM | – | – | 0.148 | 0.076 µM | 0.37 | 0.598 µM | 0.92 | 19.1 µM | 0.33 | 0.000755 µM
12 | PA-TU-8902 (pancreas, adherent) | 0.974 | > 10 µM | 0.976 | > 10 µM | 0.85 | 9.86 µM | 0.712 | 5.58 µM | 0.896 | > 20 µM | 0.788 | 0.0167 µM
13 | PA-TU-8988T (pancreas, adherent) | – | – | 0.986 | > 10 µM | 0.844 | 7.36 µM | 0.957 | > 20 µM | 0.974 | > 20 µM | 0.396 | 0.00103 µM
14 | PANC-02-03 (pancreas, adherent) | 0.981 | > 10 µM | 0.974 | > 10 µM | 0.9 | > 10.2 µM | 0.642 | 3.36 µM | 0.972 | > 20 µM | 0.726 | 0.0101 µM
15 | PANC-03-27 (pancreas, adherent) | 0.983 | > 10 µM | 0.978 | > 10 µM | 0.725 | 2.65 µM | 0.802 | 9.1 µM | 0.963 | > 20 µM | 0.246 | 0.000395 µM
16 | PANC-04-03 (pancreas, adherent) | 0.958 | > 10 µM | – | – | 0.973 | > 10.2 µM | 0.958 | > 20 µM | 0.978 | > 20 µM | 0.762 | 0.0188 µM
17 | PANC-08-13 (pancreas, adherent) | – | – | 0.981 | > 10 µM | 0.668 | 2.15 µM | 0.734 | 7.16 µM | 0.939 | > 20 µM | 0.81 | 0.023 µM
18 | PANC-10-05 (pancreas, adherent) | 0.918 | > 10 µM | 0.979 | > 10 µM | 0.752 | 4.28 µM | 0.89 | > 20 µM | 0.959 | > 20 µM | 0.453 | 0.00144 µM
19 | PC-3 (prostate, adherent) | 0.904 | > 10 µM | 0.98 | > 10 µM | 0.795 | 5.96 µM | 0.846 | 19.7 µM | 0.957 | > 20 µM | 0.796 | 0.0189 µM
20 | PC-3 [JPC-3] (lung adenocarcinoma, adherent) | 0.971 | > 10 µM | 0.938 | > 10 µM | 0.82 | 8.53 µM | 0.762 | 9.43 µM | 0.967 | > 20 µM | 0.645 | 0.00576 µM
21 | PC-14 (lung adenocarcinoma, adherent) | 0.952 | > 10 µM | 0.965 | > 10 µM | 0.756 | 3.15 µM | 0.847 | 12.4 µM | 0.956 | > 20 µM | 0.616 | 0.00401 µM
22 | PCI-4B (head and neck, adherent) | 0.909 | > 10 µM | 0.964 | > 10 µM | 0.652 | 1.65 µM | 0.866 | 16.3 µM | 0.953 | > 20 µM | 0.269 | 0.000458 µM
23 | PCI-6A (head and neck, adherent) | 0.915 | > 10 µM | 0.986 | > 10 µM | 0.751 | 3.3 µM | 0.734 | 5.73 µM | 0.945 | > 20 µM | 0.238 | 0.000356 µM

The IC50 comes from the fitted curve, where viability falls to half of the control; fits outside the tested doses are given as limits. AUC is the area under the same curve over the 256-fold range up to the top dose, as a fraction; it is 1 without any effect and falls as sensitivity rises. For some of these results: The top dose, if marked as inferred, is not printed in the source and was worked back from the curve model. For some of these results: Drugs with an entry number were screened twice under separate entries, and the two screens often disagree.
